Reference: PubChem BioAssay AID1345083 (National Center for Advancing Translational Sciences (NCATS), 2018)
The campaign covered roughly 94,000 compounds. About 6,200 (6.6%) were called active. Inconclusive means that the source gave no clear call. Such entries were picked first, then a sample of the others. Calls follow the shape of the dose curve; as a rule, active = well fitted inhibition curve with a large enough effect; inconclusive = small, poorly fitted or top-dose-only effect; inactive = flat fitted curve, though single readings scatter. Potencies beside an inconclusive call are fits to weak or partial responses and may not hold up.

experiment: Cytotoxic Profiling in HEK 293 Cell Line of Diverse Libraries Using Quantitative High-Throughput Screening; conditions: HEK 293 viability, ATP luminescence (CellTiter-Glo), 48-72 h; activity change, negative = cytotoxicity: at 115 µM (top of the series) unless noted; series mostly up to 115 µM; also: nearly all actives have a fitted effect of over 60% in size
Procedure, shortened: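 HEK 293 cells seeded at 250 cells/well were exposed to compound for 48 or 72 hr at 37 degree Celsius. Viability taken as ATP content by CellTiter-Glo luminescence.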
% is scaled to controls: 0 for no effect and ±100 for the full control effect; potency is read from the fitted curve at half-maximal effect; tags tell the direction and shape of the fitted curve.

| Compound | activity change, negative = cytotoxicity | Potency | outcome |
| --- | --- | --- | --- |
| c1coc(-c2nc(C3CCOC3)nn2C2Cc3ccccc3C2)c1 (stereo not drawn) | inactive: -8.89% |  |  |
| CCC(CC)C(=O)NC[C@@H]1C=C(C)[C@H](Cc2nc3ccccc3n2C)C[C@H]1C(C)C |  | active: 31.6 µM |  |
| OCC1(Cc2ccccc2)CCN(Cc2ccccc2-c2ccco2)CC1 |  | inconclusive: 22.4 µM [inhibitor, full curve, poor fit] |  |
| O=C(NC1CC1)c1nc(-c2ccc(F)cc2)c2ccccn12 |  | inconclusive: 89.1 µM [inhibitor, partial curve] |  |
| O=C(Cc1ccc(F)cc1)N1CC2CC(C1)[C@H]1CCCC(=O)N1C2 (stereo partly drawn) | inactive: 8.59% |  |  |
| O=C(c1cccc(Cl)c1)N1CCc2nc(C3CC3)nc(-c3ccc(Cl)cc3)c2C1 |  | inconclusive: 79.4 µM [inhibitor, partial curve, poor fit] |  |
| O=C(Cc1ccc2c(c1)OCO2)N1CCNc2cnc(Nc3cccc(C(F)(F)F)c3)nc2C1 |  | inconclusive: 44.7 µM [inhibitor, partial curve, poor fit] |  |
| COc1ccc(-c2noc([C@@H]3CCCN3C(=O)c3ccc(Cl)cc3OC)n2)cc1OC |  | inconclusive: 79.4 µM [inhibitor, single point] |  |
| CN1C(=O)CCC2(CNC(=O)NCCc3ccccc3)CCCC=C12 (stereo not drawn) | inactive: -0.993% |  |  |
| OC1CN(Cc2ccccc2)CCN(Cc2ccc(OC(F)F)cc2)C1 (stereo not drawn) |  | inconclusive: 56.2 µM [inhibitor, partial curve, poor fit] |  |
| O=C(c1ccc(C(F)(F)F)cc1)N1CCCC1C(=O)N1CCCC1c1nc2ccncc2[nH]1 (stereo not drawn) | inactive: -14.8% |  |  |
| CCn1ccc(C(=O)N2CCCC(c3ccccc3)(c3ccccc3)C2)cc1=O |  | inconclusive: 50.1 µM [inhibitor, partial curve, poor fit] |  |
| Cc1c(-c2ccccc2F)[nH]c2ccc(CNS(=O)(=O)C3CC3)cc12 |  | active: 35.5 µM |  |
| Cc1noc(-c2cccc(OC3CN(C(=O)NCC(C)C)C3)c2)n1 | inactive: -17.1% |  |  |
| C=CCCC(=O)N1c2cccc3c2[C@@H](C[C@H]1C(N)=O)CN(c1ccccc1)C3=O | inactive: -14% [at 57.5 µM] |  |  |
| CCN(CC)CC[C@H]1CN(C(=O)NC(C)C)CC[C@H]1CC(=O)O |  |  | inactive [at 172 µM] |
| CCOc1ccccc1C1NC(=O)N(CC(=O)Nc2ccc(CC)cc2)C2=C1C(=O)OC2 (stereo not drawn) |  | inconclusive: 50.1 µM [inhibitor, partial curve, poor fit] |  |
| CCC(c1cccnc1)N(C)C(=O)c1cc(COc2ccccc2)[nH]n1 (stereo not drawn) |  | active: 79.4 µM |  |
| COc1cccc(S(=O)(=O)N2CCC(n3cnnc3C(C)C)CC2)c1 | inactive: -26.6% |  |  |
| Cc1cccc(NC(=O)Cn2ccn3nc(-c4ccc(F)cc4)c(CO)c3c2=O)c1 |  | inconclusive: 89.1 µM [inhibitor, single point] |  |
| O=C1CC(c2ccccc2)N(Cc2ccncc2)CCCN(C(=O)NCc2ccccc2)CCN1 (stereo not drawn) | inactive: -8.99% |  |  |
| Cc1cc(C)cc(C(=O)N2CCN(C3CCN(CCC(C)C)C3=O)CC2)c1 (stereo not drawn) | inactive: 2.32% |  |  |

| Compound | activity change, negative = cytotoxicity | Potency | outcome |
| --- | --- | --- | --- |
| Cc1cccc(-c2noc([C@@H]3C[C@@H](O)CN3C3CCOCC3)n2)c1 |  | inconclusive: 89.1 µM [inhibitor, partial curve] |  |
| O=C(Cc1cccc(Cl)c1)N1CCC(C(=O)N2CCCC2c2nc3ccncc3[nH]2)CC1 (stereo not drawn) |  |  | inactive |
| CC1(C(=O)N2CCC(c3ccccc3)CC2)CCc2cnc(Nc3ccncc3)nc21 (stereo not drawn) |  | active: 70.8 µM |  |
| CN1[C@@H](CCC(=O)N2CCC(O)CC2)CNC(=O)[C@@H]2[C@H]1CCN2Cc1nc2ccccc2n1C | inactive: -11.9% |  |  |
| O=C(NC1CCCN(c2cc(-c3ccc(F)cc3)[nH]n2)C1)c1cccs1 (stereo not drawn) |  | inconclusive: 39.8 µM [inhibitor, partial curve] |  |
| Cn1ccc(NCc2nc3c(n2Cc2ccccc2)C(=O)N(Cc2cccc(Cl)c2)CCN3)n1 |  | inconclusive: 70.8 µM [inhibitor, partial curve, poor fit] |  |
| O=C(C1CCN(c2cnn(CC3CC3)c(=O)c2)C1)N1CCc2ccccc2C1 (stereo not drawn) |  | inconclusive: 89.1 µM [inhibitor, single point] |  |
| COc1ccc(-c2noc(CCCC(=O)NCCc3noc(-c4ccccc4)n3)n2)cc1OC |  | inconclusive: 56.2 µM [inhibitor, partial curve, poor fit] |  |
| O=C(CC1C(=O)NCCN1Cc1ccc(-c2ccccc2)cc1)NCc1ccco1 (stereo not drawn) |  | inconclusive: 25.1 µM [inhibitor, full curve, poor fit] |  |
| COc1ccc(-c2[nH]nc3ncc(C(=O)NCc4ccc(F)cc4)nc23)c(C)c1 |  | active: 31.6 µM |  |
| COC1CN(c2cccc(F)c2)C12CCN(S(=O)(=O)Cc1ccccc1F)CC2 (stereo not drawn) |  | inconclusive: 20 µM [inhibitor, full curve] |  |
| Cc1ccc(C(=O)Nc2cc(-c3ccccn3)nn2-c2ccccc2)cc1 |  | inconclusive: 56.2 µM [inhibitor, partial curve, poor fit] |  |
| COCC(=O)N1CCCC1C(=O)N1CCC(N2CCOCC2=O)CC1 (stereo not drawn) | inactive: -4.67% |  |  |
| Cc1ccccc1S(=O)(=O)N1CCC2(CC1)CC(CC(=O)N1CCCC1)CCO2 (stereo not drawn) |  | inconclusive: 89.1 µM [inhibitor, single point] |  |
| COCCCN1CCC(CNc2ncncn2)C1 (stereo not drawn) | inactive: 0.352% |  |  |
| O=C(Nc1ccncc1)C1=NO[C@@H]2CN(CCc3ccccc3)C[C@H]12 |  | inconclusive: 100 µM [inhibitor, partial curve, poor fit] |  |
| O=C(c1nc(-c2ccccc2)c2ccccn12)N1CCN(c2ncccn2)CC1 |  | active: 79.4 µM |  |
| O=C1Nc2ccc(-c3ccco3)cc2C(=O)N2CCN(C(=O)c3ccccc3)C[C@H]12 |  | inconclusive: 100 µM [inhibitor, partial curve, poor fit] |  |
| CCOc1ccccc1C(=O)N1CCc2cn(C)c3cccc(c23)C1 |  | inconclusive: 79.4 µM [inhibitor, partial curve, poor fit] |  |
| CCc1ccc(NC(=O)Cn2c(C)cc3nc4n(c(=O)c32)CCCCC4)cc1 |  | inconclusive: 20 µM [inhibitor, full curve] |  |
| Cc1cn2nc(C(=O)NC3CCc4ccccc43)cc2c(N2CCCC2)n1 (stereo not drawn) |  | inconclusive: 50.1 µM [inhibitor, partial curve, poor fit] |  |
